Measured values from PubChem BioAssay AID485297 (National Center for Advancing Translational Sciences (NCATS), 2010).
The whole screen tested about 320,000 compounds, of which about 9,100 (2.8%) were called active. Inconclusive results, whose numbers are uncertain, are shown with a selection of clear calls. The call rests on the fitted dose curve; in most records, active means well fitted activation curve with a large enough effect; inconclusive means small, poorly fitted or top-dose-only effect; inactive means no such curve, though single readings can be large or run the other way. No potency is given beside an inconclusive call; the fits are too rough.

Assay: qHTS Assay for Rab9 Promoter Activators; further: nearly all actives have a fitted effect of over 60% in size; on activation, negative = inhibition: % of control where 0% means no effect
Settings: Huh7 Rab9 promoter-luciferase reporter, luminescence, 24 h; series mostly up to 9.22 µM; activation, negative = inhibition: at the top concentration
In short: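 Huh7 reporter line, Rab9 promoter upstream of luciferase. Compound exposure 24 h at 37 °C in reduced-serum medium with 10% FBS. Read-out: luminescence.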
Potency means the concentration at half of the fitted maximal effect; tags describe the fitted curve by direction and shape.

SMILES	Potency	activation, negative = inhibition
Cc1ccc(S(=O)(=O)CC(=O)c2ccc3c(c2)OCCO3)cc1	inconclusive [activator, single point]	
NS(=O)(=O)c1ccc2nc(NC(=O)Nc3ccc(F)cc3)sc2c1	inconclusive [activator, partial curve]	
CCc1nc(SCc2ccc(OC)cc2)n[nH]1	inconclusive [activator, partial curve]	
FC(F)(F)c1cnc2c(-c3ccccc3)n[nH]c2c1	inconclusive [activator, partial curve]	
C#CCSc1ncc(-c2ccccc2)cn1	inconclusive [activator, partial curve]	
CC(Oc1ccc(Br)cc1)C(=O)NC1CCCCCC1 (stereo not drawn)		inactive: 12%
O=C(N/N=C/c1ccc(Br)s1)c1cccs1	inconclusive [activator, single point]	
O=C(Nc1nnc(CCc2ccccc2)s1)c1ccco1	inconclusive [activator, partial curve]	
NC(=O)c1ccccc1-c1nc(-c2ccccc2)no1	inconclusive [activator, single point]	
CC(=O)Nc1cccc(NC(=O)CSc2ccc(-c3ccco3)nn2)c1		inactive: 8.92%
FC(F)(F)Oc1ccc(-c2cn3cccnc3n2)cc1	active: 2.51 µM	
Cc1nn2cc(-c3ccc(Cl)cc3)cnc2c1Br	active: 1.12 µM	
Cc1ccc(Cn2cccc(-c3nc4ccccc4s3)c2=O)cc1	active: 2.24 µM	
CC(C)c1ccc(OCC(=O)NCCO)cc1	inconclusive [activator, partial curve]	
N[C@@H](CO)c1cn([C@@H](Cc2cc3ccccc3[nH]2)C(=O)N2CCNCC2)nn1		inactive: -6.25%
COc1ccc(C(=O)NC(=S)NCc2ccc(-c3nc4ccccc4o3)cc2)cc1OC		inactive: -0.218%
CCOC(=O)C1(CC2CC2)CCN(Cc2ccc3cccc(F)c3n2)CC1		inactive: -4.27%
Nc1nc2c(s1)CCc1c-2cnn1-c1ccccc1	inconclusive [activator, full curve]	
CC1CN(C(=O)c2ccc(COc3ccc4ccccc4c3)o2)CC(C)O1 (stereo not drawn)	inconclusive [activator, single point]	
O=C(NCCOc1ccccc1)c1ccc2c(c1)OCO2	active: 0.282 µM	
Cc1ccc(N=Nc2c(O)[nH]c3ccc(F)cc23)cc1	active: 2.82 µM	
OCCSc1nc(N2CCOCC2)nc(N2CCOCC2)n1		inactive: -2.05%
COc1ccc(C(C(=O)NC2CCCCC2)N(C(=O)CCl)c2ccc(OC)cc2)cc1 (stereo not drawn)		inactive: -41%
O=C1NC(=Nc2ccccc2)S/C1=C\c1cccs1	active: 3.16 µM	
Nc1nnc(COc2ccc(Br)cc2Br)s1	inconclusive [activator, single point]	
CCn1nc(C)c(CNC(=O)Nc2ccc3c(c2)OCO3)c1C	inconclusive [activator, partial curve]	

SMILES	Potency	activation, negative = inhibition
c1ccc(Nc2cccc(Nc3ccccc3)n2)cc1	inconclusive [activator, partial curve]	
Oc1ccc(/C=N/Nc2ncc(Br)cn2)c(O)c1	inconclusive [activator, single point]	
COC(=O)c1sc(N2CCCCC2)c(C#N)c1N		inactive: -4.79%
COc1ccccc1CNC(=O)c1cccc(S(=O)(=O)N2CCN(C)CC2)c1	inconclusive [activator, single point]	
O=C(Cc1noc2ccccc12)Nc1ccccn1	inconclusive [activator, single point]	
N/C(=N\OC(=O)CC1CCCCC1)c1ccncc1		inactive: 0.583%
CCSc1nnc(NC(=O)C2CC(=O)N(Cc3ccccc3)C2)s1 (stereo not drawn)		inactive: 4.84%
CCC1(C)NC(=O)N(/N=C/c2ccc(C)s2)C1=O (stereo not drawn)	inconclusive [activator, single point]	
OCC1(Cc2ccccc2)CCCN(Cc2c[nH]c3ccccc23)C1 (stereo not drawn)		inactive: 0.0018%
CCO/N=C/C(=O)Nc1ccc(F)cc1F		inactive: 15.5%
CN1CCN(C(=O)c2ccc(-c3cccs3)s2)CC1	active: 2.24 µM	
CC(=O)c1ccc(NC(=O)c2sc3nc(C)c(C)c(C)c3c2N)cc1	active: 0.794 µM	
O=C(/C=C/c1c(F)cccc1Cl)N1CCOCC1	inconclusive [activator, partial curve]	
COc1ccc(-c2cc(C(=O)NCc3cccs3)no2)cc1	active: 4.47 µM	
COc1ccccc1C(=O)Nc1nnc(SCC(=O)NCC2CCCO2)s1 (stereo not drawn)	active: 3.55 µM	
Cc1ccc(C(=O)CCC(=O)OCC(=O)NNC(=O)c2ccc([N+](=O)[O-])cc2)cc1		inactive: 1.07%
O=C(Nc1ccc2nccnc2c1)c1ccco1	inconclusive [activator, single point]	
CC(c1ccco1)N(C(=O)COc1ccc(Cl)cc1Cl)c1ccccn1 (stereo not drawn)	inconclusive [activator, single point]	
Cn1nc(-c2ccccc2)nc1-c1ccccc1	inconclusive [activator, single point]	
O=C(Nc1ccc2oc(=O)ccc2c1)c1ccc2ccccc2c1	inconclusive [activator, single point]	
COc1ccc(C(=O)O/N=C(\N)c2ccc(Br)cc2)cc1	inconclusive [activator, single point]	
C(#Cc1ccccc1)Cn1nnc2ccccc21	inconclusive [activator, single point]	
CC1CCC/C(=C\Nc2ccc3c(c2)OCO3)C1=O (stereo not drawn)	inconclusive [activator, single point]	
CCc1nnc(NC(=O)CSc2ccc(-c3nc4ccccc4[nH]3)cn2)s1	active: 2.51 µM	
COc1ccc(C(=O)/C(=C/N(C)C)S(=O)(=O)c2ccccc2)cc1	inconclusive [activator, single point]	
C/C(=N\Nc1ccc(Cl)c(C(=O)O)c1)c1ccc(N2CCOCC2)cc1	inconclusive [activator, single point]	

SMILES	Potency	activation, negative = inhibition
CSc1nc2ccc3nc(NC(=O)c4ccccc4)sc3c2s1	active: 3.55 µM	
Cc1ccc(C(=O)N/C(=C\c2ccc(-c3cc(Cl)ccc3Cl)o2)C(=O)NCc2cccnc2)cc1	inconclusive [activator, partial curve]	
CC(C)OC(=O)CC(=O)CSc1nc2c(cc1C#N)CCCCC2	inconclusive [activator, single point]	
Cc1ccc(Cl)cc1NC(=O)COC(=O)c1ccc(CN2CCCC2=O)cc1	inconclusive [activator, single point]	
CCc1ccc(N2Cc3ccccc3C2)cc1	active: 3.55 µM	
COc1ccc(-c2nc(CCl)cs2)cc1	inconclusive [activator, single point]	
COc1ccc(N2CCN(C(=O)c3cccc(NC(=O)c4ccco4)c3)CC2)cc1		inactive: 5.32%
C=CCSc1n[nH]c(-c2ccc(OCCCC)cc2)n1	inconclusive [activator, partial curve]	
Cc1cc(C=C(C#N)C#N)c(C)n1-c1ccccc1	inconclusive [activator, partial curve]	
O=C(O)c1cc(NC(=O)c2ccc([N+](=O)[O-])cc2)cc(NC(=O)c2ccc([N+](=O)[O-])cc2)c1		inactive: -2.02%
CCc1ccc(C(=O)NCC2COc3ccccc3O2)o1 (stereo not drawn)	inconclusive [activator, single point]	
CSc1ccccc1NC(=O)c1cc(CC(C)C)on1	inconclusive [activator, partial curve]	
O=C(Nc1ccc2c(c1)OCCO2)c1cc2ccccc2o1	active: 0.447 µM	
CCN(CC(=O)Nc1ccc(NC(C)=O)cc1)C(=O)/C=C/c1cn(-c2ccccc2)nc1-c1cccs1	inconclusive [activator, single point]	
CC1N(C(=O)N2CCOCC2)CCN1S(=O)(=O)c1ccc(Cl)cc1 (stereo not drawn)		inactive: -6.9%
COc1ccc(NC(=S)Nc2cc(C)cc(C)n2)cc1OC	inconclusive [activator, single point]	
CCc1nc2ccc(C(=O)O)cc2nc1CC	inconclusive [activator, partial curve]	
O=C(COc1ccc(S(=O)(=O)NCc2ccccc2)cc1Cl)NCc1ccncc1	inconclusive [activator, single point]	
COc1ccc2c(c1)[nH]c1c(=O)n(CC3CCCO3)cnc12 (stereo not drawn)	inconclusive [activator, single point]	
COC(=O)c1ccc(NC(=O)c2ccc3c(c2)OCO3)cc1	inconclusive [activator, partial curve]	
N#Cc1ccsc1NC(=O)COc1ccc(-c2nnco2)cc1	inconclusive [activator, single point]	
O=c1nc2n(c3ccccc13)Cc1ccccc1-2		inactive: -1.69%
Cc1cc(C)n2c(Br)c(CSc3nc4ccccc4o3)nc2n1	inconclusive [activator, partial curve]	
CC(=O)N1N=C(c2ccc(C)cc2)OC1c1ccc(C)cc1 (stereo not drawn)	inconclusive [activator, single point]	
Clc1ccc(-c2nnc(-c3cccnc3)o2)cc1	inconclusive [activator, single point]	
CCCc1nn(C)c(C(=O)Nc2cccc(Cl)c2)c1Cl	inconclusive [activator, single point]	
